Reference: PubChem BioAssay AID1030 (National Center for Advancing Translational Sciences (NCATS), 2008)
In all, about 220,000 compounds went through this assay and about 16,000 (7.3%) were called active. The inconclusive results got no clear call from the source; some entries with a clear call stand among them for comparison. The call rests on the fitted dose curve; in most records, active means well fitted inhibition curve with a large enough effect (not every such curve was filed as active); inconclusive means small, poorly fitted or top-dose-only effect, or another doubt; inactive means no such curve, though single readings can be large or run the other way. Where the call is inconclusive, the potency comes from a doubtful curve fit.

Target: Aldehyde dehydrogenase 1A1 (Homo sapiens) (UniProt P00352)
Experiment: qHTS Assay for Inhibitors of Aldehyde Dehydrogenase 1 (ALDH1A1);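 on activity, negative = inhibition: plate controls were no enzyme wells and a reference inhibitor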
Conditions: Purified ALDH1A1, NADH fluorescence, propionaldehyde substrate; series mostly up to 75.3 µM; activity, negative = inhibition: at the top concentration
Potency means the concentration at half of the fitted maximal effect; tags describe the fitted curve by direction and shape.

Chain of UniProt P00352 (P00352 whole entry, looked up): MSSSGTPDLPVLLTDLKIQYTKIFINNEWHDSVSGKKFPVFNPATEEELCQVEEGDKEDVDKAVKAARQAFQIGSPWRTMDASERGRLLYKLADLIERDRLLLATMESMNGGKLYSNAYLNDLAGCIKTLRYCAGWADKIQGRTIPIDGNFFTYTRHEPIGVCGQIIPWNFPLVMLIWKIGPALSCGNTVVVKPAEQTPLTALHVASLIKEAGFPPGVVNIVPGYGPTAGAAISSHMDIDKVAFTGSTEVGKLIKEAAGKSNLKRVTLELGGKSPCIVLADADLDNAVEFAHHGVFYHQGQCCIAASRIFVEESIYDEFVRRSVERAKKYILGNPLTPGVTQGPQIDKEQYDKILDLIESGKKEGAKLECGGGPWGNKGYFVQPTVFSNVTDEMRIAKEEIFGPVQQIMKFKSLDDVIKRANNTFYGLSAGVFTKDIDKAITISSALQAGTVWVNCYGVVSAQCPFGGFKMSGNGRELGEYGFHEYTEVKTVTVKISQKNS

activity, negative = inhibition, inactive:
CCc1nnc(NC(=O)Nc2ccc(Cl)cc2)s1 4.38%
CCOC(=O)c1c(NC(=O)Nc2ccccc2)sc(C)c1C -15.9%
CCNC(=S)N1CCN(CC)CC1 -10.9%
Cc1ccc(-c2nc(CN3CCCCC3CCN3CCCC3=O)c(C)o2)o1 (configuration not stated) 1.91%
Cn1nnc(NC(=O)c2ccco2)n1 1.56%
CC(=O)C1=C(C)NC(SCC(N)=O)=C(C#N)C1CC(C)C (configuration not stated) 32.2%
Cc1nc(NC(=O)c2cccc(Cl)c2)sc1-c1csc(Nc2cccc(Cl)c2)n1 -7.1%
O=S(=O)(c1cccc2c(S(=O)(=O)N3CCCC3)cccc12)N1CCCC1 0.618%

Potency, inconclusive:
O=c1c2c(nc3c(-c4cccc5ccccc45)c[nH]n13)CCC2 25.1 µM [inhibitor, single point]
CCCCn1cnc2c1c(=O)[nH]c(=O)n2CCCC 25.1 µM [inhibitor, single point]
O=C(Nc1cc(N2CCOCC2)ncn1)c1ccccc1 17.8 µM [inhibitor, single point]
N#CC1=C(N)OC2=C(CCC/C2=C/c2ccoc2)C1c1ccoc1 (configuration not stated) 25.1 µM [inhibitor, single point]
COc1ccc(NC(=O)CNS(=O)(=O)c2ccc(Cl)cc2)cc1 37.7 µM [inhibitor, single point]
CCSc1nnc([C@H](Cc2ccccc2)NC(=O)OC(C)(C)C)o1 44.7 µM [inhibitor, single point]
COc1ccc(NS(=O)(=O)c2ccc(OC)c(NC(=O)CCC3CCCCC3)c2)cc1 14.1 µM [inhibitor, partial curve]
CN(C)S(=O)(=O)c1ccc(NC(=S)NC(=O)Cc2ccccc2)cc1 35.5 µM [inhibitor, single point]
CCC1=NN2C(=N)/C(=C\c3cccn3-c3ccc(C)c(C)c3)C(=O)N=C2S1 3.16 µM [inhibitor, partial curve]
O=C1c2ccccc2NC2(CCCCC2)N1N=C1CCCCC1 28.2 µM [inhibitor, partial curve]
O=C(CSc1ncnc2c1oc1ccccc12)NC1CCCCC1 14.1 µM [inhibitor, partial curve]

Potency, active:
O=C(Nc1ccccc1Cl)c1cc(S(=O)(=O)N2CCCC(C(=O)O)C2)ccc1F (configuration not stated) 22.4 µM
Cc1cc(C)n(-c2nc(SCC(=O)N3CCCC3)c3c4c(sc3n2)CCCC4)n1 14.1 µM
ClCc1nnc(-c2ccccc2)o1 7.94 µM
